Assay results as given in PubChem BioAssay AID887 (National Center for Advancing Translational Sciences (NCATS), 2007).
“And” between values parts separate entries of the source, which are not always exact repeats. Equal entries are not always repeated. Hit rate of the full screen: of about 74,000 compounds, about 1,100 (1.5%) were called active. Inconclusive results, whose numbers are uncertain, are shown with a selection of clear calls. Calls follow the shape of the dose curve; as a rule, active = well fitted inhibition curve with a large enough effect; inconclusive = small, poorly fitted or top-dose-only effect; inactive = no such curve, though single readings can be large or run the other way. No potency is given beside an inconclusive call; the fits are too rough. Some structures have more than one record in an assay (separate samples or runs), and their calls can disagree.

Each compound was assayed against Polyunsaturated fatty acid lipoxygenase ALOX15 (Homo sapiens) (UniProt P16050) (assay: qHTS Assay for Inhibitors of 15-hLO (15-human lipoxygenase)). Conditions: purified 15hLO-1, xylenol orange hydroperoxide absorbance; series mostly up to 57.1 µM.
In short: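 Readout: Fe(III)-xylenol orange absorbance, 573-to-405 nm ratio as reaction progress. Enzyme 40 nM purified human 15hLO-1, substrate 50 uM arachidonic acid, 6 min RT after 15 min compound preincubation; Hepes pH 7.5 buffer with Triton X-100.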
Also: nearly all actives have a fitted effect of over 55% in size.
Potency is read from the fitted curve at half-maximal effect; tags tell the direction and shape of the fitted curve.

Chain of UniProt P16050 (P16050 whole entry, looked up): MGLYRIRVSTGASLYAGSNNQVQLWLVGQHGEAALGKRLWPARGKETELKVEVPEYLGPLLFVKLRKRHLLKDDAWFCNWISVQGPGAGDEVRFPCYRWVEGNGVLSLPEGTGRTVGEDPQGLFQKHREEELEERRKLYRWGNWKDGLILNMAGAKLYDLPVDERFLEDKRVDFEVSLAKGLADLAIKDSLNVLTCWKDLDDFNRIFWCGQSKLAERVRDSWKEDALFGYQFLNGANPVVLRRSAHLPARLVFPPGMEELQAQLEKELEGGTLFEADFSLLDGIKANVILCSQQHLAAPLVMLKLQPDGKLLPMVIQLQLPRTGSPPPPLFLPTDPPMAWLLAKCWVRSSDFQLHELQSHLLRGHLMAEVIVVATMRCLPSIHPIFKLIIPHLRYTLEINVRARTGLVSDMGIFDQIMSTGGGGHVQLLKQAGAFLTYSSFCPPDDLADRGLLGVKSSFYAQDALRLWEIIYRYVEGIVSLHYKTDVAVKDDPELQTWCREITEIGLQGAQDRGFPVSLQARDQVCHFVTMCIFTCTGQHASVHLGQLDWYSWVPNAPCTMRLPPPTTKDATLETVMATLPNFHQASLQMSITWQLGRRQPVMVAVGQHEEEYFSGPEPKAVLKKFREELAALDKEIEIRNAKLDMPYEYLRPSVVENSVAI

SMILES | Potency
O=C(Cn1nc(-c2ccc(Cl)cc2)ccc1=O)N1CCN(c2ccccc2)CC1 | inconclusive [inhibitor, partial curve]
O=C(CN1CCCC1)NCC1(c2ccccc2)CCOCC1 | inconclusive [inhibitor, partial curve]
Cc1sc2ncnc(NCc3ccco3)c2c1C | inconclusive [inhibitor, single point]
COCCn1c(=O)c(C)nc2cnc(N3CCNCC3)nc21 | inactive
Oc1cc(CN2COc3ccccc32)c(O)cc1CNC1CCCCC1 | inconclusive [inhibitor, single point]
CCOC(=O)c1c(N)sc2c1CCCC2 | inconclusive [inhibitor, single point]
COC(=O)c1ccc(-c2ccco2)n1Cc1nc(-c2ccc(OC)c(OC)c2)oc1C | inconclusive [inhibitor, partial curve]
Cc1ccc(C2C(C#N)=C(N)Oc3n[nH]c(-c4cccs4)c32)s1 (stereo not given) | active: 25.1 µM
O=C(OC1Cc2c(O)cc(O)cc2OC1c1cc(O)c(O)c(O)c1-c1c(C2Oc3cc(O)cc(O)c3CC2O)cc(O)c(O)c1O)c1cc(O)c(O)c(O)c1 (stereo not given) | inconclusive [inhibitor, partial curve]
Cc1ccc(-c2nc(NCCN3CCOCC3)c3ccccc3n2)cc1 | inconclusive [inhibitor, single point]
CC(CCc1ccccc1)NC(=O)c1cc2sccc2n1C (stereo not given) | inconclusive [inhibitor, single point]
O=C(O)c1ccc(Cl)c2c1C1C=CCC1C(c1ccccn1)N2 (stereo not given) | active: 15.8 µM
CCOC(=O)c1ccc(N2C(=O)c3n[nH]c(C)c3C2c2ccc(O)cc2)cc1 (stereo not given) | inconclusive [inhibitor, single point]
COc1ccc(C2CC(c3c(O)cc(C)oc3=O)=NCCS2)c(OC)c1 (stereo not given) | inconclusive [inhibitor, partial curve]
CCc1ccc(-c2cn(-c3nc(C)cc(C)n3)c(=N)o2)cc1 | inactive
Cc1cc(N2CCN(C3CCCC3)CC2)n2nc(C)c(-c3ccccc3)c2n1 | inactive
Cc1[nH]nc(-c2ccc(O)c(C)c2O)c1-c1cnn(-c2ccccc2)c1 | inconclusive [inhibitor, partial curve]
Cc1cccc(CNc2ncncc2-c2ccccc2Cl)c1 | inactive
CCOC(=O)CNc1c(-c2ccc(F)cc2)nc2cnccn12 | inconclusive [inhibitor, single point]
CC(=O)Oc1cc2oc(=O)cc(C)c2cc1OC(C)=O | inconclusive [inhibitor, partial curve]
NC1(C(=O)O)CC(C(=O)O)C1 (stereo not given) | inactive and active: 20 µM
CCOC(=O)c1c(C)n(O)c2ccc(Cl)cc2c1=O | inconclusive [inhibitor, partial curve]
CCOC(=O)c1cc(C#N)c(SCC(=O)c2cc(C#N)c(SC)nc2C)[nH]c1=O | inconclusive [inhibitor, partial curve]

SMILES | Potency
O=C1CCCC=C1[C@@H](O)COCc1ccccc1 | inconclusive [inhibitor, partial curve, poor fit]
CCCCCCn1c(CN2CCCCC2CC)nc2c1c(=O)n(C)c(=O)n2C (stereo not given) | inconclusive [inhibitor, partial curve]
CC(C)Sc1nc2sc3c(c2c2nnc(SCC(=O)NCc4ccco4)n12)CCCC3 | inconclusive [inhibitor, partial curve]
CCC1CN2CCc3cc(OC)c(OC)cc3C2CC1CC1NCCc2cc(OC)c(OC)cc21 (stereo not given) | inactive
Cn1c(=O)c2c(nc(Br)n2CCCc2ccccc2)n(C)c1=O | inactive
Cn1cccc1Cc1nnc(SCC(=O)N2CCCc3ccccc32)n1-c1ccc(F)cc1 | inconclusive [inhibitor, single point]
C=C(C)C(O)/C=C/c1ccc(OC)cc1 (stereo not given) | inconclusive [inhibitor, full curve, poor fit]
Cc1nc(SCc2c(F)cccc2Cl)c2c(=O)n(C)c(=O)n(C)c2n1 | inactive
COc1ccc(C2=CC(c3ccc(F)cc3)n3nnnc3N2)cc1 (stereo not given) | inconclusive [inhibitor, single point]
Cc1nc2ccccc2c(=O)n1/N=C/c1c(O)ccc2oc3c(c12)CCCC3 | inactive
Clc1ccccc1-c1nccc(-n2ccnc2)n1 | inconclusive [inhibitor, single point]
CSC1CCCCC1(O)CSc1nc2ccccc2o1 (stereo not given) | inconclusive [inhibitor, single point]
COc1cccc(N2C(=O)CC(Nc3ccc(N4CCOCC4)cc3)C2=O)c1 (stereo not given) | active: 12.6 µM
C/C(CCc1oc2ccccc2c1-c1ccc(C)o1)=N/O | inconclusive [inhibitor, partial curve]
C[C@@]12CC[C@@H]3[C@@H](CC[C@H]4C[C@@H](O)CC[C@]43C)[C@H]1CC[C@@H]2c1cc(C(F)(F)F)n[nH]1 | inconclusive [inhibitor, single point]
COc1cc2c(Cc3c4c5c(cc(OC)c(OC)c5c5c(OC)c(OC)ccc35)CCN4C)c3c4c(cc(OC)c(OC)c4c2cc1OC)CCN3C | inconclusive [inhibitor, partial curve]
CC(=O)Oc1c2c(c3c(c1CC=C(C)C)O[C@@]14C(=CC5CC1C(C)(C)OC4(C/C=C(\C)C(=O)O)C5=O)C3=O)OC(C)(CCC=C(C)C)C=C2 (stereo not given in full) | inactive
COC(=O)C1=C(C)Nc2ccc(C)cc2S1 | active: 10 µM
CC(=O)NCCNc1ncncc1-c1ccc(N(C)C)cc1 | active: 12.6 µM
Clc1ccc(Cl)c(-c2nn3c(COc4ccccc4)nnc3s2)c1 | active: 10 µM
CC1(C)C/C(=N\O)c2cc3c(nc2C1)CCCC3 | inconclusive [inhibitor, single point]
Cc1cc(C(=O)Cn2nnc3ccccc3c2=O)c(C)n1Cc1cccs1 | inactive
